Data taken from PubChem BioAssay AID624418 (National Center for Advancing Translational Sciences (NCATS), 2012).
Hit rate of the full screen: of about 410,000 compounds, about 530 (0.13%) were called active. The shares of active, inactive and inconclusive entries below differ from those in the screen. The call rests on the fitted dose curve; in most records, active means well fitted inhibition curve with a large enough effect; inconclusive means small, poorly fitted or top-dose-only effect, or another doubt; inactive means no such curve, though single readings can be large or run the other way. Potencies of inconclusive entries are doubtful fits and often do not repeat.
On the % scale 0 is the no-effect control and ±100 the full control effect; potency means the concentration at half of the fitted maximal effect.

Assay: qHTS of GLP-1 Receptor Inverse Agonists: Cytotox Screen
Details: HEK293 cAMP-luciferase reporter cells, luminescence, 24 h; activity change, negative = inhibition: at 38.3 µM (top of the series) unless noted
Outline: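 Cells in DMEM/10% Nu serum/1% pen-strep, 1536-well format. Pre-incubated 12 h, dosed with 23 nL compound, incubated a further 24 h. Luciferase detection, 12 min at room temp, luminescence.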
With `C=CCn1c(=O)/c(=C/c2ccc(F)cc2)s/c1=C(\C#N)c1nnc2n1CCCCC2` the Potency was inconclusive: 10 µM [inhibitor, single point].
For `COc1ccccc1Nc1nc(-c2ccc(F)cc2)c2c(n1)-c1ccccc1OC2`, the “activity change, negative = inhibition” value was inactive: 14.3%.
With `CC(C)(C)C(=O)NNC(=O)COc1ccc2ccccc2c1Br` the “activity change, negative = inhibition” value was inactive: -6.68%.
With `O=[N+]([O-])c1ccc2[nH]c(=S)sc2c1` the Potency was inconclusive: 28.2 µM [inhibitor, single point].
In the case of `NCCOc1ccc(C23CC4CC(CC(C4)C2)C3)cc1`, the Potency is reported as inconclusive: 28.2 µM [inhibitor, single point].
In the case of `Cc1cc(C)nc(NC(=O)CSc2nc3ccccc3s2)n1`, the “activity change, negative = inhibition” value is reported as inactive: -2.08%.
For `COc1cccc(-c2nc(SCC(=O)Nc3nc(-c4ccccc4)c(C)s3)[nH]c(=O)c2C#N)c1`, the “activity change, negative = inhibition” value was inactive: 0.799%.
In the case of `COc1ccc(NC(=O)C(=O)Nc2cccc3cccnc23)c(OC)c1`, the “activity change, negative = inhibition” value is reported as inactive: 0.508%.
For `Cn1c(SCC(=O)N(C2CCCCC2)C2CCCCC2)nnc1-c1cccs1`, the Potency was inconclusive: 11.2 µM [inhibitor, single point].
With `COc1ccc(N2CCN(C(=O)c3cc4c(C)nc5ccccc5c4o3)CC2)cc1` the Potency was inconclusive: 28.2 µM [inhibitor, single point].
In the case of `Cc1ccc(NC(=O)c2c(NC(=O)c3ccc(F)cc3)sc3c2CCCC3)cc1C`, the “activity change, negative = inhibition” value is reported as inactive: 2.48%.
In the case of `O=C(CCc1ccccc1)NC(=S)Nc1ccccc1Br`, the Potency is reported as inconclusive: 14.1 µM [inhibitor, single point].
For `O=C(NCCCN1CCOCC1)c1ccc(S(=O)(=O)Nc2cccc(C(F)(F)F)c2)cc1`, the “activity change, negative = inhibition” value was inactive: -6.92%.
In the case of `Cc1nc2ccc(S(=O)(=O)NC(CC(C)C)C(=O)N3CCN(c4ccc(F)cc4)CC3)cc2s1` (centres undefined), the “activity change, negative = inhibition” value is reported as inactive: 0.586%.
With `Cc1ccccc1-c1noc(-c2cccnc2N(C)Cc2ccc(Cl)cc2)n1` the “activity change, negative = inhibition” value was inactive: 9.22%.
For `O=C(NC(=S)Nc1cccc2c(O)cccc12)c1cccc(Br)c1`, the Potency was inconclusive: 28.2 µM [inhibitor, single point].
In the case of `CC(C)C(N)c1csc(NC(=O)Nc2ccc(OC(F)(F)F)cc2)n1` (centres undefined), the Potency is reported as inconclusive: 28.2 µM [inhibitor, single point].
With `O=C(Nc1cccc2cccnc12)c1ccc(Br)o1` the “activity change, negative = inhibition” value was inactive: 0.622%.
In the case of `CCCCN(c1nc2ccccc2nc1Cl)S(=O)(=O)c1ccc(C)cc1`, the “activity change, negative = inhibition” value is reported as inactive: 0.0152%.
With `Cc1cc(C)n(-c2nc3ccccc3c(=O)n2OCC#N)n1` the Potency was inconclusive: 3.55 µM [inhibitor, full curve].
With `c1ccc2[nH]c(NC3=NCCC3)nc2c1` the Potency was inconclusive: 11.2 µM [inhibitor, single point].
For `CCOc1ccccc1NC(=O)c1ccc(S(=O)(=O)N(C)C)cc1`, the “activity change, negative = inhibition” value was inactive: 4.02%.
In the case of `CC(=O)N1c2ccccc2[C@@H](C)[C@@H]1C`, the “activity change, negative = inhibition” value is reported as inactive: 0.132%.
With `Cc1cc(NC(=O)c2ccccc2F)n(-c2nc3ccccc3[nH]2)n1` the “activity change, negative = inhibition” value was inactive: -25%.
With `COC(=O)C1=C(C)NC2=C(C(=O)CC(C)(C)C2)C1c1cn(Cc2ccc(Br)cc2)nc1-c1ccccc1` (centres undefined) the “activity change, negative = inhibition” value was inactive: 113%.
With `Nc1c(C(=O)Nc2ccccc2)c2nc3ccccc3nc2n1CCCN1CCOCC1` the Potency was inconclusive: 28.2 µM [inhibitor, single point].
With `CCC(C)Sc1ccc([C@@H]2[C@H]3C(=O)N(C)C(=O)[C@H]3[C@]3(C(=O)OC)CCCN23)cc1` (some centres undefined) the Potency was inconclusive: 0.316 µM [inhibitor, full curve, poor fit].
In the case of `Cc1nn(-c2ccccc2)c2sc(C(=O)n3cccn3)cc12`, the “activity change, negative = inhibition” value is reported as inactive: 17.6%.
For `O=C(NCCOc1ccc(F)cc1)c1ccccc1SCc1ccccc1`, the “activity change, negative = inhibition” value was inactive: 17.7%.
For `Cc1ccc2nc(SCC(=O)N(CC(C)C)c3c(N)n(Cc4ccccc4)c(=O)[nH]c3=O)[nH]c2c1`, the Potency was inconclusive: 0.447 µM [inhibitor, full curve, poor fit].
In the case of `CCOC(=O)c1ccc(Nc2nc(-c3cccnc3)nc3ccccc23)cc1`, the “activity change, negative = inhibition” value is reported as inactive: -8.45%.
In the case of `Cc1c(Cl)cccc1NC(=S)NNS(=O)(=O)c1ccc([N+](=O)[O-])cc1`, the Potency is reported as inconclusive: 20 µM [inhibitor, single point].
For `NNC(=O)CN1C(c2ccc(Br)cc2)=Nc2ccc(Br)cc2C1c1ccccc1` (centres undefined), the Potency was inconclusive: 28.2 µM [inhibitor, single point].
For `COc1ccc(Br)cc1CN(C)CC(=O)Nc1c(Cl)ccc(C)c1Cl`, the Potency was inconclusive: 22.4 µM [inhibitor, partial curve, poor fit].
With `COC(=O)c1c(NC(=O)CSc2nnnn2-c2ccccc2)sc2c1CCC(C)C2` (centres undefined) the “activity change, negative = inhibition” value was inactive: 16.6%.
With `CC(C)c1ccc(NC(=O)c2cc(S(=O)(=O)NCc3ccccc3Cl)ccc2F)cc1` the Potency was inconclusive: 10 µM [inhibitor, partial curve, poor fit].
For `Cc1ccc(C(=O)Nc2nnc([C@H]3C[C@H](O)[C@@H](CO)O3)s2)cc1`, the “activity change, negative = inhibition” value was inactive: -5.86%.
For `Cc1ccccc1OCC(O)CN(Cc1ccccc1O)C1CCCCC1` (centres undefined), the Potency was inconclusive: 22.4 µM [inhibitor, partial curve, poor fit].
In the case of `Cc1ccccc1OCCCCCNCCO`, the Potency is reported as inconclusive: 1.26 µM [inhibitor, full curve, poor fit].
In the case of `CN(C)CCNc1ncnc2c1sc1nc(N3CCOCC3)c3c(c12)CC(C)(C)SC3`, the Potency is reported as inconclusive: 14.1 µM [inhibitor, single point].
For `COCCn1c(=S)[nH]c2cc(C(=O)N3CCCC(C)C3)ccc2c1=O` (centres undefined), the “activity change, negative = inhibition” value was inactive: -6.38%.
With `COc1ccc(C(c2c(O)ccc3ccccc23)N2CCOCC2)c(OC)c1` (centres undefined) the Potency was inconclusive: 10 µM [inhibitor, single point].
With `CCN1CCN(C(c2ccc(F)cc2)c2c(O)cc(C)n(CCOC)c2=O)CC1` (centres undefined) the “activity change, negative = inhibition” value was inactive: 0.605%.
For `CC(C)(C)c1nc(SCC(=O)NNC(=O)c2ccccc2)c2ccccc2n1`, the Potency was inconclusive: 14.1 µM [inhibitor, single point].
For `CCC(=O)Oc1c(S(=O)(=O)c2ccc(C)cc2)c(C)nn1C(C)(C)C`, the Potency was inconclusive: 12.6 µM [inhibitor, single point].
For `COc1ccccc1NC(=O)CSc1ccc2nnc(-c3cccnc3)n2n1`, the Potency was inconclusive: 14.1 µM [inhibitor, single point].
In the case of `COC(=O)c1ccc(NC(=O)c2sc3nc(-c4ccccc4)cn3c2C)cc1`, the Potency is reported as inconclusive: 31.6 µM [inhibitor, single point].
With `O=C(Cc1c(O)c2ccccc2[nH]c1=O)NCc1cccc(F)c1` the “activity change, negative = inhibition” value was inactive: -6.88%.
With `O=C(CCn1c(=S)[nH]c2ccccc2c1=O)NCCc1ccccc1` the Potency was inconclusive: 28.2 µM [inhibitor, single point].
For `O=C(N[C@H]1/C=C\[C@@H](O)CCCC1)OCc1ccccc1`, the “activity change, negative = inhibition” value was inactive: 0.289%.
In the case of `O=C(CN1C(=O)C(=O)c2ccccc21)OCN1C(=O)c2ccccc2C1=O`, the “activity change, negative = inhibition” value is reported as inactive: -0.631%.
With `COc1ccc([N+](=O)[O-])c(OC)c1C(=O)NC(=O)Nc1c(F)cc(F)cc1F` the Potency was inconclusive: 10 µM [inhibitor, partial curve].
With `C[n+]1c(/C=C/c2ccc(O)cc2)ccc2ccccc21` the Potency was inconclusive: 10 µM [inhibitor, partial curve, poor fit].
In the case of `CCOC(=O)c1ccc(NC(=S)N(CCCN2CCN(CC)CC2)Cc2ccco2)cc1`, the Potency is reported as inconclusive: 28.2 µM [inhibitor, single point].
In the case of `COc1ccc(C(=O)Cc2ccccc2C(=O)O)cc1`, the “activity change, negative = inhibition” value is reported as inactive: -6.09%.
With `CCCCCn1c(CNC(=O)c2cccs2)nc2ccccc21` the Potency was inconclusive: 20 µM [inhibitor, single point].
For `COc1ccc(N2C(=O)/C(=C\c3ccco3)N=C2SCC(N)=O)cc1Cl`, the Potency was inconclusive: 12.6 µM [inhibitor, partial curve, poor fit].
In the case of `CCOC(=O)c1c(C)[nH]c(C)c1S(=O)(=O)N1CCCC(C(=O)Nc2ccc(F)cc2F)C1` (centres undefined), the “activity change, negative = inhibition” value is reported as inactive: 6.19%.
For `CCC(C)Nc1nc(-c2ccccn2)nc2ccccc12` (centres undefined), the Potency was inconclusive: 0.447 µM [inhibitor, full curve, poor fit].
For `COc1cc(C2CC(=O)N(c3ccccc3)C3=C2C(=O)OC3)cc(OC)c1OC` (centres undefined), the “activity change, negative = inhibition” value was inactive: 7.83%.
For `COC(=O)C1=C(C)N(Cc2ccco2)C(=O)/C1=C\c1ccc([N+](=O)[O-])cc1`, the Potency was inconclusive: 12.6 µM [inhibitor, single point].
With `COc1ccc(C2NCCc3c2[nH]c2ccccc32)cc1CN1CCc2cc(OC)c(OC)cc2C1C` (centres undefined) the Potency was inconclusive: 14.1 µM [inhibitor, partial curve, poor fit].
With `O=C(O)C1CCN(Cc2ccccn2)CC1` the Potency was inconclusive: 28.2 µM [inhibitor, single point].
In the case of `Cc1cc(C(=O)N2CCC(C)(C(=O)NS(=O)(=O)C3CC3)C2)n(C(C)(C)C)n1` (centres undefined), the “activity change, negative = inhibition” value is reported as inactive: -0.146%.
With `Nc1ccccc1-c1nnc(-c2ccccc2N)n1N` the “activity change, negative = inhibition” value was inactive: -14.1%.
In the case of `CCN(C(=O)CCN1C(=O)/C(=C/c2ccccc2)SC1=S)C1CCS(=O)(=O)C1` (centres undefined), the Potency is reported as inconclusive: 11.2 µM [inhibitor, single point].
For `O=C(CSCc1ccccc1F)NCc1ccccc1`, the “activity change, negative = inhibition” value was inactive: 3.86%.
In the case of `CC(=O)c1ccc(S(=O)(=O)N2CCC(c3nc4ccccc4[nH]3)CC2)cc1`, the Potency is reported as inconclusive: 1.26 µM [inhibitor, partial curve, poor fit].
In the case of `CC1(C(=O)Nc2ccc3c(c2)OCO3)CCN1C(=O)Cc1cccc2ccccc12` (centres undefined), the “activity change, negative = inhibition” value is reported as inactive: -2.98%.
In the case of `S=c1[nH]ncn1NCc1ccc(Cl)cc1Cl`, the “activity change, negative = inhibition” value is reported as inactive: 1.08%.
With `Clc1ccc2oc(-c3cccnc3)nc2c1` the “activity change, negative = inhibition” value was inactive: 20.9%.
For `NC(N)=N/N=C(\N=Nc1ccccc1)c1ccc(Cl)cc1`, the Potency was inconclusive: 14.1 µM [inhibitor, partial curve, poor fit].
In the case of `O=c1c2c3c(sc2nc2n1CCCC2)CCC3`, the Potency is reported as inconclusive: 0.501 µM [inhibitor, full curve, poor fit].
With `CCN(CC)CCCNC(=O)c1cc2c(-c3ccc(Cl)cc3)nn(C)c2s1` the Potency was inconclusive: 12.6 µM [inhibitor, partial curve, poor fit].
